A collection of fitness landscapes (doi:10.1126/science.1257360)
Some of the results follow.

B1: PhoQ; a variant is named by its letters at X, in order, P23837 (parent)
chain: MKKLLRLFFPLSLRVRFLLATAAVVLVLSLAYGMVALIGYSVSFDKTTFRLLRGESNLFYTLAKWENNKLHVELPENIDKQSPTMTLIYDENGQLLWAQRDVPWLMKMIQPDWLKSNGFHEIEADVNDTSLLLSGDHSIQQQLQEVREDDDDAEMTHSVAVNVYPATSRMPKLTIVVVDTIPVELKSSYMVWSWFIYVLSANLLLVIPLLWVAAWWSLRPIEALAKEVRELEEHNRELLNPATTRELTSLVRNLNRLLKSERERYDKYRTTLTDLTHSLKTPLXXLQXXLRSLRSEKMSVSDAEPVMLEQISRISQQIGYYLHRASMRGGTLLSRELHPVAPLLDNLTSALNKVYQRKGVNISLDISPEISFVGEQNDFVEVMGNVLDNACKYCLEFVEISARQTDEHLYIVVEDDGPGIPLSKREVIFDRGQRVDTLRPGQGVGLAVAREITEQYEGKIVAGESMLGGARMEVIFGRQHSAPKDE

Variants of: B1
Experiment: enrichment ratio after two sorts for PhoP signalling (ratio (wild type AVST 3.29)); higher = more functional
Settings: with PhoP (E. coli)

CKIS and NYSV cannot be ordered by enrichment ratio: ≤ 0.25 for the first, ≤ 0.25 for the second.

IQDP and RTNP cannot be ordered by enrichment ratio: ≤ 0.25 for the first, ≤ 0.25 for the second.

IGCP and PNWP cannot be ordered by enrichment ratio: ≤ 0.25 for the first, ≤ 0.25 for the second.

SKVW and DIKN cannot be ordered by enrichment ratio: ≤ 0.25 for the first, ≤ 0.25 for the second.

IFCM and INAE cannot be ordered by enrichment ratio: ≤ 0.25 for the first, ≤ 0.25 for the second.

LASK and INPN cannot be ordered by enrichment ratio: ≤ 0.25 for the first, ≤ 0.25 for the second.

ILVH and IHLM cannot be ordered by enrichment ratio: ≤ 0.25 for the first, ≤ 0.25 for the second.

QNNV and KCNR cannot be ordered by enrichment ratio: ≤ 0.25 for the first, ≤ 0.25 for the second.

IGDM and QFSF cannot be ordered by enrichment ratio: ≤ 0.25 for the first, ≤ 0.25 for the second.

SPMF and QDWS cannot be ordered by enrichment ratio: ≤ 0.25 for the first, ≤ 0.25 for the second.

MERI and YRWK cannot be ordered by enrichment ratio: ≤ 0.25 for the first, ≤ 0.25 for the second.

First: AGQH
Second: TVAQ
The enrichment ratio of the first is lower: ≤ 0.25 for the first, 4.72 for the second.

RMRF and QHVW cannot be ordered by enrichment ratio: ≤ 0.25 for the first, ≤ 0.25 for the second.

INDM and PWMI cannot be ordered by enrichment ratio: ≤ 0.25 for the first, ≤ 0.25 for the second.

ANLD and KMMR cannot be ordered by enrichment ratio: ≤ 0.25 for the first, ≤ 0.25 for the second.

VDQS and IRHI cannot be ordered by enrichment ratio: ≤ 0.25 for the first, ≤ 0.25 for the second.

QMTM and FLYN cannot be ordered by enrichment ratio: ≤ 0.25 for the first, ≤ 0.25 for the second.

WKHL and KFKH cannot be ordered by enrichment ratio: ≤ 0.25 for the first, ≤ 0.25 for the second.

First: ESGS
Second: SDIH
The enrichment ratio of the first is lower: ≤ 0.25 for the first, 2.15 for the second.

GPCM and PEQH cannot be ordered by enrichment ratio: ≤ 0.25 for the first, ≤ 0.25 for the second.

IEPQ and KRNN cannot be ordered by enrichment ratio: ≤ 0.25 for the first, ≤ 0.25 for the second.

ETCY and WNQR cannot be ordered by enrichment ratio: ≤ 0.25 for the first, ≤ 0.25 for the second.

RPFT and YYWE cannot be ordered by enrichment ratio: ≤ 0.25 for the first, ≤ 0.25 for the second.

IGPG and KYDN cannot be ordered by enrichment ratio: ≤ 0.25 for the first, ≤ 0.25 for the second.

First: MQCN
Second: DSWS
The enrichment ratio of the first is higher: 6.8 for the first, ≤ 0.25 for the second.

NYDW and EHYT cannot be ordered by enrichment ratio: ≤ 0.25 for the first, ≤ 0.25 for the second.

FPRK and WQYE cannot be ordered by enrichment ratio: ≤ 0.25 for the first, ≤ 0.25 for the second.

NKFH and YWCY cannot be ordered by enrichment ratio: ≤ 0.25 for the first, ≤ 0.25 for the second.

Compared with TTQT, YQTG is lower in enrichment ratio: 3.63 for the first, ≤ 0.25 for the second.

Compared with TQNC, RKTR is lower in enrichment ratio: 4.57 for the first, ≤ 0.25 for the second.

TLIL and TYGM cannot be ordered by enrichment ratio: ≤ 0.25 for the first, ≤ 0.25 for the second.

Compared with PGAQ, YIAT is higher in enrichment ratio: ≤ 0.25 for the first, 0.272 for the second.

FISM and KTQT cannot be ordered by enrichment ratio: ≤ 0.25 for the first, ≤ 0.25 for the second.

CSFD and HGRE cannot be ordered by enrichment ratio: ≤ 0.25 for the first, ≤ 0.25 for the second.

LVVC and ELAK cannot be ordered by enrichment ratio: ≤ 0.25 for the first, ≤ 0.25 for the second.

NELD and KGEM cannot be ordered by enrichment ratio: ≤ 0.25 for the first, ≤ 0.25 for the second.

ELKD and RTEN cannot be ordered by enrichment ratio: ≤ 0.25 for the first, ≤ 0.25 for the second.

ASQN and WRPE cannot be ordered by enrichment ratio: ≤ 0.25 for the first, ≤ 0.25 for the second.

YVRG and FQRD cannot be ordered by enrichment ratio: ≤ 0.25 for the first, ≤ 0.25 for the second.

ARYL and ISSC cannot be ordered by enrichment ratio: ≤ 0.25 for the first, ≤ 0.25 for the second.

HERF and AAMT cannot be ordered by enrichment ratio: ≤ 0.25 for the first, ≤ 0.25 for the second.

TMSR and AVKW cannot be ordered by enrichment ratio: ≤ 0.25 for the first, ≤ 0.25 for the second.

First: FSFI
Second: RWYS
The enrichment ratio of the first is higher: 0.694 for the first, ≤ 0.25 for the second.

RHWT and SVET cannot be ordered by enrichment ratio: ≤ 0.25 for the first, ≤ 0.25 for the second.

ETTC and RCYG cannot be ordered by enrichment ratio: ≤ 0.25 for the first, ≤ 0.25 for the second.

Going from TMAR to KNNN, the enrichment ratio falls from 4.26 to ≤ 0.25.

HVPE and PELK cannot be ordered by enrichment ratio: ≤ 0.25 for the first, ≤ 0.25 for the second.

PWMD and GSHC cannot be ordered by enrichment ratio: ≤ 0.25 for the first, ≤ 0.25 for the second.

SWYW and FHRF cannot be ordered by enrichment ratio: ≤ 0.25 for the first, ≤ 0.25 for the second.

YEGL and NDTY cannot be ordered by enrichment ratio: ≤ 0.25 for the first, ≤ 0.25 for the second.

First: QMYQ
Second: LRQF
The enrichment ratio of the first is higher: 7.96 for the first, ≤ 0.25 for the second.

GSQS and DKYW cannot be ordered by enrichment ratio: ≤ 0.25 for the first, ≤ 0.25 for the second.

YQKY and PNMY cannot be ordered by enrichment ratio: ≤ 0.25 for the first, ≤ 0.25 for the second.

GIIF and WLTC cannot be ordered by enrichment ratio: ≤ 0.25 for the first, ≤ 0.25 for the second.

DCQA and SMND cannot be ordered by enrichment ratio: ≤ 0.25 for the first, ≤ 0.25 for the second.

Going from MASI to QYEH, the enrichment ratio falls from 6.62 to ≤ 0.25.

EDMQ and VAFD cannot be ordered by enrichment ratio: ≤ 0.25 for the first, ≤ 0.25 for the second.

GDQR and YRWL cannot be ordered by enrichment ratio: ≤ 0.25 for the first, ≤ 0.25 for the second.

SQCW and VLFS cannot be ordered by enrichment ratio: ≤ 0.25 for the first, ≤ 0.25 for the second.

GMVG and PYDL cannot be ordered by enrichment ratio: ≤ 0.25 for the first, ≤ 0.25 for the second.

IHWT and IWIK cannot be ordered by enrichment ratio: ≤ 0.25 for the first, ≤ 0.25 for the second.

FDCN and TLIS cannot be ordered by enrichment ratio: ≤ 0.25 for the first, ≤ 0.25 for the second.

ECFP and KLGY cannot be ordered by enrichment ratio: ≤ 0.25 for the first, ≤ 0.25 for the second.

IFIE and HIFS cannot be ordered by enrichment ratio: ≤ 0.25 for the first, ≤ 0.25 for the second.

Going from LAEH to MTWL, the enrichment ratio rises from ≤ 0.25 to 10.

RYCW and KQFG cannot be ordered by enrichment ratio: ≤ 0.25 for the first, ≤ 0.25 for the second.

First: TQLQ
Second: KKYR
The enrichment ratio of the first is higher: 5.05 for the first, ≤ 0.25 for the second.

TCKV and DTTM cannot be ordered by enrichment ratio: ≤ 0.25 for the first, ≤ 0.25 for the second.

ANYF and MWAV cannot be ordered by enrichment ratio: ≤ 0.25 for the first, ≤ 0.25 for the second.

Compared with KRQF, QHWT is higher in enrichment ratio: ≤ 0.25 for the first, 3.63 for the second.

YDAW and EVNP cannot be ordered by enrichment ratio: ≤ 0.25 for the first, ≤ 0.25 for the second.

ECSP and TDDI cannot be ordered by enrichment ratio: ≤ 0.25 for the first, ≤ 0.25 for the second.

Compared with AEVG, DIDV is lower in enrichment ratio: 6.84 for the first, ≤ 0.25 for the second.

SNGR and YKFW cannot be ordered by enrichment ratio: ≤ 0.25 for the first, ≤ 0.25 for the second.

DLQG and WDQH cannot be ordered by enrichment ratio: ≤ 0.25 for the first, ≤ 0.25 for the second.

HLVH and DNMF cannot be ordered by enrichment ratio: ≤ 0.25 for the first, ≤ 0.25 for the second.

GLMA and RHMQ cannot be ordered by enrichment ratio: ≤ 0.25 for the first, ≤ 0.25 for the second.

PHGM and GRRC cannot be ordered by enrichment ratio: ≤ 0.25 for the first, ≤ 0.25 for the second.

First: DWHK
Second: YELE
The enrichment ratio of the first is lower: ≤ 0.25 for the first, 13.8 for the second.

FDDA and HRML cannot be ordered by enrichment ratio: ≤ 0.25 for the first, ≤ 0.25 for the second.

Compared with SNNL, FVRQ is lower in enrichment ratio: 13.1 for the first, ≤ 0.25 for the second.

RMRR and IAWP cannot be ordered by enrichment ratio: ≤ 0.25 for the first, ≤ 0.25 for the second.

MCPD and NANY cannot be ordered by enrichment ratio: ≤ 0.25 for the first, ≤ 0.25 for the second.

ICKF and PSAE cannot be ordered by enrichment ratio: ≤ 0.25 for the first, ≤ 0.25 for the second.

RQTD and TDFQ cannot be ordered by enrichment ratio: ≤ 0.25 for the first, ≤ 0.25 for the second.

NADE and KTAT cannot be ordered by enrichment ratio: ≤ 0.25 for the first, ≤ 0.25 for the second.

Going from AIIP to SNLD, the enrichment ratio rises from ≤ 0.25 to 4.91.

YMDI and ALWD cannot be ordered by enrichment ratio: ≤ 0.25 for the first, ≤ 0.25 for the second.

IYET and PYCY cannot be ordered by enrichment ratio: ≤ 0.25 for the first, ≤ 0.25 for the second.

RTMP and HHMD cannot be ordered by enrichment ratio: ≤ 0.25 for the first, ≤ 0.25 for the second.

EKKP and ACNK cannot be ordered by enrichment ratio: ≤ 0.25 for the first, ≤ 0.25 for the second.

DYFQ and MMDS cannot be ordered by enrichment ratio: ≤ 0.25 for the first, ≤ 0.25 for the second.

First: SWKI
Second: TLLD
The enrichment ratio of the first is lower: ≤ 0.25 for the first, 0.36 for the second.

MEKQ and HIYI cannot be ordered by enrichment ratio: ≤ 0.25 for the first, ≤ 0.25 for the second.

HWWN and SGID cannot be ordered by enrichment ratio: ≤ 0.25 for the first, ≤ 0.25 for the second.

Compared with KMWY, MAYG is higher in enrichment ratio: ≤ 0.25 for the first, 1.2 for the second.

NPFL and YNDS cannot be ordered by enrichment ratio: ≤ 0.25 for the first, ≤ 0.25 for the second.

WPTE was tested, and the enrichment ratio was ≤ 0.25.
